Hit rate of the full screen: of about 48,000 compounds, about 450 (0.94%) were called active. Roughly 19% stayed inconclusive and do not appear here. The call rests on the fitted dose curve; in most records, active means well fitted inhibition curve with a large enough effect; inconclusive means small, poorly fitted or top-dose-only effect; inactive means no such curve, though single readings can be large or run the other way. The list shows a part of the results.
test: Primary qHTS for Identification of Small Molecule Inhibitors of Huntingtin Promoter Activity; conditions: HEK293 HTT promoter firefly luciferase reporter (activity 0% = vehicle and -100% = no light), 24 h; series mostly up to 57.5 µM; activity change, negative = inhibition: at the top concentration; further: nearly all actives have a fitted effect of over 50% in size
Summary of the method: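 HEK293 Fluc reporter, 2,500 cells/well, 24 h pre-culture; cpds up to 57.5 uM final, 24 h 37 degrees C; Dual-Glo, 10 min RT; normalized vehicle = 0%, zero RLU = -100%.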
Potency means the concentration at half of the fitted maximal effect.

Activity change, negative = inhibition, inactive:
CCCCc1nn2c(=O)cc(COC(=O)c3cccc(Cl)c3)nc2s1 -25.2%
Cc1cccc(C)c1NC(=O)Cn1nnc(C(=O)Nc2c(C)cccc2C)c1N -8.04%
Cc1ccc(CNC(=O)CN2C(=O)CSc3c2c(C)nn3-c2ccccc2)cc1 -12.9%
COc1ccc(NC(=O)c2oc3ccccc3c2NC(=O)Cc2coc3cc(C)ccc23)cc1 -1.93%
COc1ccc(C)cc1NC(=O)CCNC(=O)Cn1ccc2ccccc2c1=O -14.8%
COCCCn1c(=N)c(C(=O)NCc2cccnc2)cc2c(=O)n3cccc(C)c3nc21 2.51%
CCOC(=O)c1c(C)[nH]c(CCC(=O)NCc2cccc(C)c2)c1C -13%
COc1ccc(-n2ncc(C(=O)Nc3ccc4c(c3)OCO4)c2C2CCN(C(=O)OC(C)(C)C)CC2)cc1 20.3%
COc1ccc2oc(-c3ccc(C)c(NC(=O)c4ccc5c(c4)OCCO5)c3)nc2c1 -0.296%
Cn1c(-c2ccccc2)cnc1NCc1ccccc1O 7.52%
O=C(NCc1ccccc1Br)c1ccc2c(c1)nc1n2CCOC1 7.71%
CCCNC(=O)COCc1cc(-c2ccc(F)cc2)on1 7.8%
O=C(CCC1N=C2c3ccccc3N=C(SCc3ccccc3F)N2C1=O)NCc1ccccc1 (configuration not stated) 6.12%
COc1ccc(NC(=O)CN2C(=O)CSc3ccc(S(=O)(=O)N(C)C)cc32)cc1Cl -30.6%
COc1ccc(NC(=O)C2CCN(C(=O)N3CCOc4ccccc43)CC2)cc1 -12.8%
Cc1ccccc1Cn1nnc2c(=O)[nH]c(C3CCN(C(=O)c4ccccc4Cl)CC3)nc21 -15.5%
Cc1ccc(-n2ncc(C(=O)NCc3ccccn3)c2C2CCN(C(=O)OC(C)(C)C)CC2)c(C)c1 -30.4%
COc1ccc(CNC(=O)CCCn2c(=O)c3cccn3c3ccc(F)cc32)cc1OC 10.2%
O=c1c2cc3c(cc2n(Cc2ccccc2)c(=O)n1Cc1nc(-c2ccccc2)no1)OCO3 14.3%
COc1ccc(NC(=O)N2CCN(S(=O)(=O)c3ccc4c(ccn4C)c3)CC2)cc1OC -2.3%
CCC1CN(C(=O)NCc2ccccc2)c2cc(C)ccc2O1 (configuration not stated) -12.8%
COCCCNC(=O)C(C)n1c2ccccc2c2cnn(C)c(=O)c21 (configuration not stated) -10.4%
CCCSc1nc(-c2ccc(OC)cc2)cc(-c2ccccc2OC)c1C#N 17.7%
COc1ccc(Br)cc1CNC(=O)c1cc(=O)[nH]c2ccc(S(=O)(=O)N3CCCCC3)cc12 -1.01%
COc1ccc(Cl)cc1Nc1cc(C)nc2nc(-c3ccccc3C)nn12 -3.62%
CN(C)c1ccc(C(CNC(=O)c2cccc(C(F)(F)F)c2)N2CCCC2)cc1 (configuration not stated) -17.4%
CCOc1ccc(NC(=O)C2CCN(S(=O)(=O)c3c(C)noc3/C=C/c3c(C)cc(C)cc3C)CC2)cc1 -20.3%
CCCCCCCC/C=C\CCCCCCCCN 7%
Cc1ccc(CNc2ncnc3c2c(-c2ccccc2)cn3-c2ccccc2)cc1 -15.6%
CCCC(=O)Nc1cccc(-c2cn3cccnc3n2)c1 31.4%
CCCC(CCC)C(=O)O
CCN(CC)c1ccc(NC(=O)c2sc3ccccc3c2Cl)cc1 21.9%
CC(C)[N+](C)(C)CC(O)COc1cccc2ccccc12 (configuration not stated) 2.7%
CCCn1c(=N)c(C(=O)NCc2cccnc2)cc2c(=O)n3ccccc3nc21 -6.93%
CCOC(=O)c1cc(OC(=O)c2ccc(OC)cc2)n(-c2ccccc2)n1 1.69%
COc1ccc(NC(=O)C(Cc2ccccc2)NS(=O)(=O)c2ccc3c(c2)CCN3C(C)=O)cc1 (configuration not stated) -12.3%
Cc1ccc(C)c(CNC(=O)c2ccc3c(c2)nc2n3CCC(C)C2)c1 (configuration not stated) 20.6%
Cc1ccc(N(C)S(=O)(=O)c2nnc(NC(=O)CC(C)C)s2)cc1 5%
CCOC(=O)Cc1ccc(NC(=O)Nc2cc3c(cc2N2CCCCC2)n(C)c(=O)n3C)cc1 -15.4%
CN(C)CCCC1(c2ccc(F)cc2)OCc2cc(C#N)ccc21 (configuration not stated) -16.9%
CCOC(=O)c1cc2c(=O)n3ccccc3nc2n(C)c1=NC(=O)c1c(-c2ccccc2Cl)noc1C -2.36%
COc1ccc(-n2cc(C(=O)Nc3cc(F)ccc3F)c3ccccc3c2=O)cc1 -9.29%
CCCCOC(=O)c1ccc(NC(=O)CC2NCCNC2=O)cc1 (configuration not stated) 7.33%
COCCCNC(=O)C1CCC(CNS(=O)(=O)c2ccc(OC)cc2)CC1 (configuration not stated) -16.2%
COc1cccc(CNC(=O)C2CCN(Cc3cc4ccccc4n3Cc3ccc(C)cc3)CC2)c1 -9.31%
COc1cc(-c2cc3n(C)c(C)c(CCC(=O)NCc4ccccc4)c(=O)n3n2)cc(OC)c1OC 2.44%
Cc1nc2c(-c3ccccc3)c(C)nn2c(C)c1CCC(=O)NCc1ccc(Cl)cc1 -10.1%
Cc1ccc(CNC(=O)CCCN2C(=O)CCn3nc(-c4cn(C)c5ccccc45)cc32)cc1 0%
COc1ccc(NC(=O)CC2C(=O)N(c3ccccc3)C(=O)N2C2CCCCC2)cc1 (configuration not stated) -20.1%
CCOC(=O)c1nnn(CC(=O)Nc2cc(C)cc(C)c2)c1C(=O)OCC -24.5%
CCOC(=O)c1ccc(NC(=O)c2nc(SC(C)C)ncc2Cl)cc1 -28.8%
Cc1ccc(C)c(Cn2cnc3c(cnn3-c3ccc(F)cc3)c2=O)c1 -1.51%
Cn1nc(C(=O)NCc2ccc(F)cc2)c2c1-c1ccccc1SC2 -14.8%
Cc1cc(-c2ccccc2)n2nc(-c3cccc(Br)c3)cc2n1 -19.4%
CC1CCN(C(=O)CN2c3ccc(C(C)C)cc3-c3ccccc3S2(=O)=O)CC1 12.8%
Cc1ccc(-c2c(C(=O)NCc3ccc(F)cc3)oc(=O)c3ccccc23)cc1 -11.4%
CC(=O)c1cccc(NC(=O)c2oc(=O)c3ccccc3c2-c2ccccc2)c1 -21.1%
CC(C)CN(CCNC(=O)c1cn(C)c2ccc(S(=O)(=O)N3CCOCC3)cc2c1=O)CC(C)C -21.3% [at 11.5 µM]
CSCCC(NS(=O)(=O)c1ccc2c(c1)oc(=O)n2C)C(=O)NCc1ccccc1 (configuration not stated) -10.6%
Cc1ccc2cccc(NC(=O)c3ccc(-c4cccc(Cl)c4Cl)o3)c2n1 -4.02%
COc1ccc(CCCc2nnc(SCC(=O)Nc3ccc(F)cc3)o2)cc1C -5.84%
CSc1ccc(C(=O)Nc2ccc(-c3nc4ccccc4s3)c(O)c2)cc1 -2.77%
COc1ccc2c(c1)c1c(c(=O)n(Cc3ccccc3)c(=O)n1CC(=O)NCc1ccc(C)cc1)n2C -9.62%
Cc1ccc(C)c(N2CCN(C(=O)c3ccc(Nc4nc5ccccc5n5nnnc45)cc3)CC2)c1 15.7%
COc1ccc(N2CCN(C(=O)CCC(=O)NNc3nc4ccccc4c4nc(C)nn34)CC2)cc1 -25.7%
Cc1ccc(OCc2nnc(SCC(=O)Nc3ccccc3C(C)C)o2)cc1 -27.9%
CCc1ccc(NC(=O)c2ccc3nc(C(C)C)oc3c2)cc1 -21.3%
COc1cc(OC)c(NC(=O)Cn2c(=O)cc(C)c3c(C)nn(-c4ccc(C)cc4)c32)cc1Cl 0%
CSc1ccc(-c2nc3c(C)cccn3c2Nc2ccc3c(c2)OCCO3)cc1 -3.23%
CCOC(=O)N1CCC2(CC1)OC(=O)C(C)=C2C(=O)NCc1ccc(C)cc1 -2.58%
CCNC(=O)c1ccc(CSc2nc3cccnc3n2Cc2ccc(OC)cc2)cc1 -24.1%
COC(=O)Cn1ccc2cc(S(=O)(=O)N3CCCCCC3)ccc21 -23.1%
CCN(C(=O)CN1C(=O)COc2ccc(S(=O)(=O)N3CCOCC3)cc21)c1cccc(C)c1 2.53%
COC(=O)c1ccc(NC(=O)Cn2c(-c3nonc3N)nc3ccccc32)cc1 -0.366%
CCCc1cnc2c(c1SCC(=O)Nc1c(C)cc(C)cc1C)c(=O)n(C)c(=O)n2C -11.4%
Cc1nn(CC(=O)N2CCC(C)CC2)c(=O)c2cc3occc3n12 -6.2%
FC(F)(F)c1ccc(C2=Nc3ccccc3NC(c3cccs3)=N2)cc1 -35.7%
COc1ccc(F)cc1NC(=O)C1CCN(c2nc(-c3ccc(OC)c(OC)c3)no2)CC1 37.9%
Cc1ccc(-n2nc(C)c3c(C)cc(=O)n(CC(=O)NCc4ccc(OC(C)C)cc4)c32)cc1 -16.3%
O=C(COc1ccc(F)cc1)Nc1cccc(OCc2cc(=O)n3ccccc3n2)c1 57.5%
COc1ccc(Nc2ncc(C(=O)Nc3cc(C)ccc3OC)c3ccccc23)cc1 -18.3%
Cc1ccc2c(c1)c1c(c(=O)n(-c3ccccc3C)c(=O)n1Cc1ccccc1F)n2C -17.5%
COc1ccc(NC(=O)CCc2c(C)nc3c(-c4ccccc4)c(C)nn3c2C)cc1Cl -24.7%
Cn1c(C(=O)NCc2ccc(Cl)cc2)cc2c(=O)n(C)c3ccccc3c21 11%
Cc1ccc(NC(=O)c2ccc(=O)n(CC(=O)Nc3cc(C)cc(C)c3)n2)cc1 -13.2%
Fc1ccc(-n2ncc3c(Nc4ccc(Oc5ccccc5)cc4)ncnc32)cc1 0.739%
CC(=O)Nc1cccc(-c2nnc(SCC(=O)c3cc([N+](=O)[O-])ccc3Br)o2)c1 0.0183%
COc1cc(C(c2c(C)[nH][nH]c2=O)c2c(C)[nH][nH]c2=O)ccc1OC(=O)c1ccccc1F -15% [at 11.5 µM]
CC(=O)Nc1ccc(NC(=O)CSc2nnc3c4cc(Br)ccc4n(C)c3n2)cc1 -14.8%
COC(=O)c1ccc2oc(=O)c(S(=O)(=O)c3ccc(C)cc3)cc2c1 -13.9%
CCCC(=O)Nc1cccc(-c2nc3cc(C)c(C)cc3o2)c1C -6.12%
Cc1ccc(CNC(=O)C2CCN(c3nc4ccc(C)cc4[nH]3)CC2)cc1 0.879%
Cc1ccc2c(c1)c1c(c(=O)n(-c3cccc(Cl)c3)c(=O)n1C)n2C -10.2%
COc1cc(OC)c(NC(=O)c2cnc(N3CCCC3)nc2C)cc1Cl -12%
CCSc1ncc(Cl)c(C(=O)Nc2sc(C(C)=O)c(C)c2C(=O)OC)n1 -8.18%
O=C(CCc1ccc(O)cc1)c1c(O)cc(O)cc1O[C@@H]1O[C@H](CO)[C@H](O)[C@H](O)[C@H]1O -6.92%

Potency, active:
COc1ccc2oc(=O)c(C(=O)Nc3cccc(C(=O)O)c3)cc2c1 3.98 µM
